# Publication PMC10726135
# This is one part of the list. At the low end of the ranking the order means little. The protein was read in a cell extract, so binding may be indirect.
# Molecular target: T1, HNF4alpha8 (COS-7 nuclear extract) (UniProt P41235-5)
# T1 sequence: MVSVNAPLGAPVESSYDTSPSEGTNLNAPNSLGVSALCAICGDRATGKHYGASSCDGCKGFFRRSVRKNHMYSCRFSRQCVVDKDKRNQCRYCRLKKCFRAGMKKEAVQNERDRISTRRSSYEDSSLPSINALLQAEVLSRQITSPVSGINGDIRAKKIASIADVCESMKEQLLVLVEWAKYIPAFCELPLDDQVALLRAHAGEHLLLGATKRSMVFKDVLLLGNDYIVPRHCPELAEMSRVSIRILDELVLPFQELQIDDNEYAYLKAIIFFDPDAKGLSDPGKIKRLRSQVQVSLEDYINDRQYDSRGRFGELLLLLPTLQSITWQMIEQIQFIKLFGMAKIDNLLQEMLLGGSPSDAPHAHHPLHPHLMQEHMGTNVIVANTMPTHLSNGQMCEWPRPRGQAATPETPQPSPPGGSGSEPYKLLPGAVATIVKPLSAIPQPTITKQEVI
# Assay: protein-binding microarray
# Conditions: COS-7 nuclear extract on double-stranded Agilent 4x180k PBM; binding buffer, salt, pH and temperature not given; high values mean tight binding; double strand, one strand shown; sequences stand for … in …GCCTAGGGAGATTAGAGTATCGGTCGA
row,Sequence,binding signal (log2 normalized intensity)
1,TCTGCTGTTCTTGCCTGATAGCATCGTGGG,0.443
2,CTTGGGGTAATCTCCCAATCTCGAGATCAT,-1.33
3,GAGAAAGAGGGGAAGGATGAATTTAAAAAA,-1.34
4,TAAAGTGTCTCCCTCTGCAGCAAAGTCCAG,3.17
5,TCTTTATTCGTGAGTTTTCCATTTACCTCC,0.865
6,TCCTGTTTGTCAGCATCTTCACCGTAAAGC,-0.706
7,AGCCAAAATAAAGCAGCAAACCAGATAAGA,-1.38
8,ACTGGTGTTGCTCAAATATTTGGAGAGCAG,0.699
9,CTATGTGAGGAATCTAAGATAAGCAGCATT,-1.28
10,CTCGCAGAAAGTGGCCGGACAGGTTGGGTC,0.737
11,ACAGCGTACTGTGCTAAAGAGTGATTGAAG,-1.26
12,GTTGCCTGTGAGTCAGGTACCTGCTTCTGC,0.609
13,TCAAATATTTGGATAATGTGCCCTTTGTAC,7.39
14,AGAGAACTGAAAAAGGGGACCGGCCTTTCC,-1.37
15,CTGTGTCTTGGCAGTGATCAGTGTTGAGAA,1.56
16,TACAGAGTATAATAAAGTGGCAACCCTTGA,1.59
17,TTACTCATGTGGTCCTAAGACTAACCTTTG,4.06
18,ACAGTAAAGAACAAACTTCCCCTGCAGCTG,-1.19
19,TGAAAAGAGTGATCTTTGGGCCATATTGAC,1.62
20,GCCTGAATGCAGGGAGCAGAGTCCCAAGCA,-1.31

row,Sequence,binding signal (log2 normalized intensity)
1,TGGTCCCATAGGAAAGTGAGCATGGGCTTA,-1.16
2,AAGTGACTTCAAGGGAGTAAAGGTCGTTCT,5.74
3,GTAGACACTCATCCCTTGCACTGCTCAGGG,-1.09
4,ATAAGTTTTCTCATAAAACACCCACCTTGT,-0.154
5,GGCGGGGCAGCAGGGAAGAGCCGGCCGGCG,-1.31
6,CTGTGCAAGCCCCTGACCAAGGGTCATGCT,3.96
7,GGTTCAAAGTGTAGCGCAGCCAGTTCTGGA,-1.3
8,GCGGAAGCACACACGAGCTGTGCGCTTAGT,-1.28
9,CTGAACCTTGCACTATTGACCCAGTGAAAC,3.39
10,CATTTTACAGTGCCATTTATCAGTGATTTC,0.109
11,CTTCCCTAAGCAGCTGCAGTTTCTGCTATC,-1.25
12,AAAAGCTTTTCTTCCCCCCTCCCTCCGCAA,5.54
13,CGGTCACATTCCACTCAGTCTCTTGAAATC,0.256
14,CCTCCTCCTTGGCTCTCCCCACTTACTTCC,1.85
15,GCCGGGAAGATGCCAGCCCCGAGATAACCC,3.35
16,GGGAATGGCTCGTATGAATGTGGGAAGCTG,-1.43
17,GGTCGGGGAGGTGTTTATCTTGTGGTTGGA,2.32
18,GCCTGAACTGACTGCATTCCCTTTCTCCTC,-0.597
19,ATTTATCAAGATGAACTTTGACCCACCTAC,8.8
20,AGAGAGAGGTGGGCAAAGGTCTCAAGGCCT,2.76
